# Measured values as given in PMC9388138, “Engineered IL13 variants direct specificity of IL13Rα2-targeted CAR T cell therapy” (Proceedings of the National Academy of Sciences of the …, 2022).
# T1: Biotinylated IL13Rα2 ectodomain (human, UniProt Q14627 27-343, biotin on the biotin acceptor peptide (coexpressed with BirA ligase))
# T1 construct: interleukin-13 receptor subunit alpha-2, ectodomain; also called recombinant IL13Rα2; source: baculovirus (pAcGP67-A), coexpressed with BirA ligase and excess biotin
# T1 sequence (looked up): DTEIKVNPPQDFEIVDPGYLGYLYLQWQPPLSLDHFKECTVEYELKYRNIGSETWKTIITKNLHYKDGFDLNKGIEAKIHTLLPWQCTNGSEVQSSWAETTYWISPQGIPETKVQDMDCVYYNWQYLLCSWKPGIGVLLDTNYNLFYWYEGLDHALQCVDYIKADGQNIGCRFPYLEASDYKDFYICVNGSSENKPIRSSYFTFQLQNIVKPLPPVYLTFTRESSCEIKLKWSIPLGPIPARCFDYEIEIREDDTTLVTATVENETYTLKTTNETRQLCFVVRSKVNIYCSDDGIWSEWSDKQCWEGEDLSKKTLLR
# T2: Biotinylated IL13Rα1 ectodomain (human, UniProt P78552 22-343, biotin on the biotin acceptor peptide (coexpressed with BirA ligase))
# T2 construct: interleukin-13 receptor subunit alpha-1, ectodomain; also called recombinant IL13Rα1; source: baculovirus (pAcGP67-A), coexpressed with BirA ligase and excess biotin
# T2 sequence (looked up): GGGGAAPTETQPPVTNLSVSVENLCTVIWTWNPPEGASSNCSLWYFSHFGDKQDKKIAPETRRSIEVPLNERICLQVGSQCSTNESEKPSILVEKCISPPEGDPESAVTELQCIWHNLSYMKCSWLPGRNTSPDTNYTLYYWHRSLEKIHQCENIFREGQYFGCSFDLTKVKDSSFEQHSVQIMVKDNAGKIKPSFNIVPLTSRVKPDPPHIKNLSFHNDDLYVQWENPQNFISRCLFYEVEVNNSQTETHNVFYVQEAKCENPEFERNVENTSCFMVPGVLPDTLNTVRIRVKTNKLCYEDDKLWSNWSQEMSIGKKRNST
# B1: Human IL13 wild type, soluble recombinant (ligand)
# chain: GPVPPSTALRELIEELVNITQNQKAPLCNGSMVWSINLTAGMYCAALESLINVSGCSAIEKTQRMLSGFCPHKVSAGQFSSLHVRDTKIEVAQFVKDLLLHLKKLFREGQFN
# Assays:
# [1] = biological target: T1, Biotinylated IL13Rα2 ectodomain; assay: SPR; Biacore T100, SA chip; biotinylated IL13Rα1/IL13Rα2 captured at 50 to 100 RU; threefold serial dilutions of IL13 agonists in HBS-P with 0.1% BSA, 30 µL/min; 1:1 Langmuir model; settings: both partners purified
# [2] = biological target: T2, Biotinylated IL13Rα1 ectodomain; assay: as above; settings: both partners purified
binder,measurement,setting,value
B1,Kd,[1],0.001 nM
same,koff,[1],8.4e-05 s⁻¹
same,kon,[1],5e+07 M⁻¹ s⁻¹
same,Kd,[2],4.38 nM
same,koff,[2],0.022 s⁻¹
same,kon,[2],5.21e+06 M⁻¹ s⁻¹
